Positions count from the first letter of the chain named. Some of the results follow.

The results in this text go back to publication PMC9911399, “Two distinct binding modes provide the RNA-binding protein RbFox with extraordinary sequence specificity”.

T1: RBFOX1 RRM RbFoxmut (Fox-RRM*) (Homo sapiens, UniProt Q9NWB1 109-208, R118D;E147R;N151S;E152T)
T1 sequence: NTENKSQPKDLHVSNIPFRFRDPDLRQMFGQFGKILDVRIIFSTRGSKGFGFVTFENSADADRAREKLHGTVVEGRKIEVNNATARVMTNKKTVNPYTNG

B1: AUAAAUG (DNA:RNA)
RNA: GGGAGACCGGAAUUCAGAUUGUCCAUAAAUGUUAAAUCCCGUCGUAGCCACCA
DNA 1: CAATCTGAATTCCGGTCTCCC
DNA 2: TGGTGGCTACGACGGGATT
B2: CUACCAC (DNA:RNA)
RNA: B1 RNA with A25C, A28C, A29C, U30A, G31C
DNA 1: CAATCTGAATTCCGGTCTCCC
DNA 2: TGGTGGCTACGACGGGATT
B3: CUAGCUG (DNA:RNA)
RNA: B1 RNA with A25C, A28G, A29C
DNA 1: CAATCTGAATTCCGGTCTCCC
DNA 2: TGGTGGCTACGACGGGATT
B4: GAAACCC (DNA:RNA)
RNA: B1 RNA with A25G, U26A, A29C, U30C, G31C
DNA 1: CAATCTGAATTCCGGTCTCCC
DNA 2: TGGTGGCTACGACGGGATT
B5: UAGUGCC (DNA:RNA)
RNA: GGGAGACCGGAAUUCAGAUUGUCCUAGUGCCUUAAAUCCCGUCGUAGCCACCA
DNA 1: CAATCTGAATTCCGGTCTCCC
DNA 2: TGGTGGCTACGACGGGATT
B6: CCGUUAG (DNA:RNA)
RNA: B5 RNA with U25C, A26C, G29U, C30A, C31G
DNA 1: CAATCTGAATTCCGGTCTCCC
DNA 2: TGGTGGCTACGACGGGATT
B7: UCGACCU (DNA:RNA)
RNA: B5 RNA with A26C, U28A, G29C, C31U
DNA 1: CAATCTGAATTCCGGTCTCCC
DNA 2: TGGTGGCTACGACGGGATT
B8: GUAUUGG (DNA:RNA)
RNA: B1 RNA with A25G, A28U, A29U, U30G
DNA 1: CAATCTGAATTCCGGTCTCCC
DNA 2: TGGTGGCTACGACGGGATT
B9: UAAUUGU (DNA:RNA)
RNA: B5 RNA with G27A, G29U, C30G, C31U
DNA 1: CAATCTGAATTCCGGTCTCCC
DNA 2: TGGTGGCTACGACGGGATT
B10: AAUAUCG (DNA:RNA)
RNA: B1 RNA with U26A, A27U, A29U, U30C
DNA 1: CAATCTGAATTCCGGTCTCCC
DNA 2: TGGTGGCTACGACGGGATT
B11: UCAGGAG (DNA:RNA)
RNA: B1 RNA with A25U, U26C, A28G, A29G, U30A
DNA 1: CAATCTGAATTCCGGTCTCCC
DNA 2: TGGTGGCTACGACGGGATT
B12: AUGGAGC (DNA:RNA)
RNA: B1 RNA with A27G, A28G, U30G, G31C
DNA 1: CAATCTGAATTCCGGTCTCCC
DNA 2: TGGTGGCTACGACGGGATT
B13: UGGAGAU (DNA:RNA)
RNA: B5 RNA with A26G, U28A, C30A, C31U
DNA 1: CAATCTGAATTCCGGTCTCCC
DNA 2: TGGTGGCTACGACGGGATT
B14: GUCAUGG (DNA:RNA)
RNA: B1 RNA with A25G, A27C, A29U, U30G
DNA 1: CAATCTGAATTCCGGTCTCCC
DNA 2: TGGTGGCTACGACGGGATT
B15: CACCAAG (DNA:RNA)
RNA: B1 RNA with A25C, U26A, A27C, A28C, U30A
DNA 1: CAATCTGAATTCCGGTCTCCC
DNA 2: TGGTGGCTACGACGGGATT
B16: UCCCCGG (DNA:RNA)
RNA: B1 RNA with A25U, U26C, A27C, A28C, A29C, U30G
DNA 1: CAATCTGAATTCCGGTCTCCC
DNA 2: TGGTGGCTACGACGGGATT
B17: AACGGGA (DNA:RNA)
RNA: B5 RNA with U25A, G27C, U28G, C30G, C31A
DNA 1: CAATCTGAATTCCGGTCTCCC
DNA 2: TGGTGGCTACGACGGGATT
B18: GCCAAGC (DNA:RNA)
RNA: B1 RNA with A25G, U26C, A27C, U30G, G31C
DNA 1: CAATCTGAATTCCGGTCTCCC
DNA 2: TGGTGGCTACGACGGGATT
B19: UACUAGC (DNA:RNA)
RNA: B5 RNA with G27C, G29A, C30G
DNA 1: CAATCTGAATTCCGGTCTCCC
DNA 2: TGGTGGCTACGACGGGATT
B20: UUAGCUU (DNA:RNA)
RNA: B1 RNA with A25U, A28G, A29C, G31U
DNA 1: CAATCTGAATTCCGGTCTCCC
DNA 2: TGGTGGCTACGACGGGATT
B21: UCAUACG (DNA:RNA)
RNA: B1 RNA with A25U, U26C, A28U, U30C
DNA 1: CAATCTGAATTCCGGTCTCCC
DNA 2: TGGTGGCTACGACGGGATT
B22: UGCGCCG (DNA:RNA)
RNA: B5 RNA with A26G, G27C, U28G, G29C, C31G
DNA 1: CAATCTGAATTCCGGTCTCCC
DNA 2: TGGTGGCTACGACGGGATT
B23: CUGAACC (DNA:RNA)
RNA: B1 RNA with A25C, A27G, U30C, G31C
DNA 1: CAATCTGAATTCCGGTCTCCC
DNA 2: TGGTGGCTACGACGGGATT
B24: ACGGGAA (DNA:RNA)
RNA: B5 RNA with U25A, A26C, U28G, C30A, C31A
DNA 1: CAATCTGAATTCCGGTCTCCC
DNA 2: TGGTGGCTACGACGGGATT
B25: UCCCACG (DNA:RNA)
RNA: B1 RNA with A25U, U26C, A27C, A28C, U30C
DNA 1: CAATCTGAATTCCGGTCTCCC
DNA 2: TGGTGGCTACGACGGGATT
B26: GCAGGGA (DNA:RNA)
RNA: B1 RNA with A25G, U26C, A28G, A29G, U30G, G31A
DNA 1: CAATCTGAATTCCGGTCTCCC
DNA 2: TGGTGGCTACGACGGGATT
B27: CCCUGAU (DNA:RNA)
RNA: B5 RNA with U25C, A26C, G27C, C30A, C31U
DNA 1: CAATCTGAATTCCGGTCTCCC
DNA 2: TGGTGGCTACGACGGGATT
B28: GAUUCUC (DNA:RNA)
RNA: B5 RNA with U25G, G27U, G29C, C30U
DNA 1: CAATCTGAATTCCGGTCTCCC
DNA 2: TGGTGGCTACGACGGGATT
B29: GUUAUUG (DNA:RNA)
RNA: B1 RNA with A25G, A27U, A29U
DNA 1: CAATCTGAATTCCGGTCTCCC
DNA 2: TGGTGGCTACGACGGGATT
B30: GUUUCAG (DNA:RNA)
RNA: B1 RNA with A25G, A27U, A28U, A29C, U30A
DNA 1: CAATCTGAATTCCGGTCTCCC
DNA 2: TGGTGGCTACGACGGGATT
B31: UUACCAG (DNA:RNA)
RNA: B1 RNA with A25U, A28C, A29C, U30A
DNA 1: CAATCTGAATTCCGGTCTCCC
DNA 2: TGGTGGCTACGACGGGATT

The assay has as its target T1, RBFOX1 RRM RbFoxmut (Fox-RRM*). Briefly: EMSA; HiTS-Eq, 1 nM pool, 10 min; buffer printed only for the single-RNA assays: 10 mM Tris pH 7.5, 150 mM NaCl, 3.4 mM EDTA, 0.001% NP-40, 30 C. The settings on record: tags: His6 N-terminal (pET28a); label: 5' 32P. Summed up: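 These values rest on relative association constants, computed from read-count changes of each RNA species versus the control reaction and normalised to the cognate motif. Reads came from free RNA recovered by 8% native PAGE after purified RbFox RRM (wild type or mutant) at increasing concentrations was equilibrated for 10 min in 50 µL with 1 nM of a 5′-radiolabelled pool with 7 randomized nucleotides and DNA-annealed flanks.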
(In general: In EMSA bound probe runs differently from free probe, usually more slowly.)
B1: the binding signal is 0.118 KA relative to UGCAUGU.
With B2, the binding signal was 0.119 KA relative to UGCAUGU.
Consider B3, for which the binding signal is 0.137 KA relative to UGCAUGU.
The value for B4 was 0.0217 KA relative to UGCAUGU; that for B5 was 0.27 KA relative to UGCAUGU; that for B6 was 0.113 KA relative to UGCAUGU.
As for B7, the binding signal was 0.0565 KA relative to UGCAUGU.
The figure for B8 is 0.162 KA relative to UGCAUGU; for B9 it is 0.0755 KA relative to UGCAUGU; for B10 it is 0.1 KA relative to UGCAUGU.
With B11, the binding signal is 0.12 KA relative to UGCAUGU.
For B12, the binding signal is 0.124 KA relative to UGCAUGU.
In the case of B13, the binding signal is 0.094 KA relative to UGCAUGU.
Take B14: the binding signal was 0.154 KA relative to UGCAUGU.
The figure for B15 is 0.138 KA relative to UGCAUGU; for B16 it is 0.0768 KA relative to UGCAUGU; for B17 it is 0.0959 KA relative to UGCAUGU.
In the case of B18, the binding signal was 0.0532 KA relative to UGCAUGU.
The figure for B19 is 0.0649 KA relative to UGCAUGU.
The value for B20 was 0.11 KA relative to UGCAUGU.
Regarding B21, the binding signal was 0.115 KA relative to UGCAUGU.
The figure for B22 is 0.121 KA relative to UGCAUGU; for B23 it is 0.0804 KA relative to UGCAUGU; for B24 it is 0.124 KA relative to UGCAUGU.
Consider B25, for which the binding signal is 0.136 KA relative to UGCAUGU.
Regarding B26, the binding signal was 0.0749 KA relative to UGCAUGU.
B27: the binding signal was 0.0882 KA relative to UGCAUGU.
The value for B28 was 0.068 KA relative to UGCAUGU; that for B29 was 0.158 KA relative to UGCAUGU.
The figure for B30 is 0.153 KA relative to UGCAUGU; for B31 it is 0.122 KA relative to UGCAUGU.
